No constants are given. Whether binding was seen depends on the method and setting. In cells and extracts the contact can be indirect. Some results given as binding are weak or reduced against the parent protein; the word gives no strength. Sequences can lack the tags named with a protein.

In this test the target is T1, Flag-tagged Shc1 (UniProt P29353).
T1 sequence: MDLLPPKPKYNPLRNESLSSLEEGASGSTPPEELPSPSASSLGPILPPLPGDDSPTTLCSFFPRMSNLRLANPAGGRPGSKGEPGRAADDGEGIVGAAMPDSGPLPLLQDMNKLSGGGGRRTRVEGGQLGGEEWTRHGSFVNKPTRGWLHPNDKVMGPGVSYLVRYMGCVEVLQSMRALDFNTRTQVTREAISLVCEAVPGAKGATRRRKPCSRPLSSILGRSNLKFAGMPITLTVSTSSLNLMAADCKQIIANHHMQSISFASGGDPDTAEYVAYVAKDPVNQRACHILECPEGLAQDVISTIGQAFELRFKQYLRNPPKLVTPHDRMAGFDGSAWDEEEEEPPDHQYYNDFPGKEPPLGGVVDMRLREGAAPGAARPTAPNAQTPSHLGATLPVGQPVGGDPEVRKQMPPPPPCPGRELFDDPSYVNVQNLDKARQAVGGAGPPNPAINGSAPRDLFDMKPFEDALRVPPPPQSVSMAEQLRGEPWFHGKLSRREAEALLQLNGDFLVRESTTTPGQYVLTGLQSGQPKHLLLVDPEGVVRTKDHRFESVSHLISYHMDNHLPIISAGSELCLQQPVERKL
Put plainly: co-IP; Flag-Shc1 with HA-SHCBP1 in SNU-216 cells; anti-Flag M2 agarose, 4 °C; 50 mM Tris-HCl pH 7.4, 150 mM NaCl, 1 mM EDTA, 0.2% TritonX-100; cells treated with 100 ng/mL EGF for the indicated times and/or trastuzumab.

B1: HA-tagged SHCBP1 (protein, UniProt Q8NEM2 1-672)
chain: MADGSLTGGGLEAAAMAPERMGWAVEQELASLEKGLFQDEDSCSDCSYRDKPGSSLQSFMPEGKTFFPEIFQTNQLLFYERFRAYQDYILADCKASEVQEFTAEFLEKVLEPSGWRAVWHTNVFKVLVEITDVDFAALKAVVRLAEPYLCDSQVSTFTMECMKELLDLKEHRLPLQELWVVFDDSGVFDQTALAIEHVRFFYQNIWRSWDEEEEDEYDYFVRCVEPRLRLHYDILEDRVPSGLIVDYHNLLSQCEESYRKFLNLRSSLSNCNSDSEQENISMVEGLKLYSEMEQLKQKLKLIENPLLRYVFGYQKNSNIQAKGVRSSGQKITHVVSSTMMAGLLRSLLTDRLCQEPGEEEREIQFHSDPLSAINACFEGDTVIVCPGHYVVHGTFSIADSIELEGYGLPDDIVIEKRGKGDTFVDCTGADIKISGIKFVQHDAVEGILIVHRGKTTLENCVLQCETTGVTVRTSAEFLMKNSDLYGAKGAGIEIYPGSQCTLSDNGIHHCKEGILIKDFLDEHYDIPKISMVNNIIHNNEGYGVVLVKPTIFSDLQENAEDGTEENKALKIQTSGEPDVAERVDLEELIECATGKMELCARTDPSEQVEGNCEIVNELIAASTQKGQIKKKRLSELGITQADDNLMSQEMFVGIVGNQFKWNGKGSFGTFLF
As to B1, the binding entry is “binds”.
